These results are taken from US20250084170A1 (SHAPERON, published 2025).

In experiment [1] the target is T1, PD-L1 antigen (human PD-L1 protein, Octet analyte) (human, UniProt Q9NZQ7 part only, limits assumed).
T1 construct: also called human PD-L1 antigen
Description: BLI (Octet RED 96e), antibody on anti-human Fc tips, PD-L1 antigen as analyte, 1:1 global fit. On the technique in general: BLI is a label-free optical method that tracks binding on a fibre tip over time.

In experiment [2] the target is T2, CD47 antigen (human CD47 protein, Octet analyte) (human, UniProt Q08722 part only, limits assumed).
T2 construct: also called human CD47 antigen
Briefly: BLI (Octet RED 96e), antibody on anti-human Fc tips, CD47 antigen as analyte, 1:1 global fit.

Experiment [3] addresses T3, CD47 antigen expressed on the cell surface (Expi-CHO_CD47 cell line) (human, UniProt Q08722).
T3 construct: whole, on cells; also called Expi-CHO cells stably expressing CD47 antigen
Description: FACS competition on Expi-CHO_CD47 cells, competitor human SIRPalpha-His 10 µg/mL.

For experiment [4], the target named is T4, PD-L1 antigen expressed on the cell surface (CHO-K1_PD-L1 cell line) (human, UniProt Q9NZQ7).
T4 construct: whole, on cells; also called CHO-K1_PD-L1 cells; CHO-K1 cells stably expressing PD-L1 antigen
Description: FACS competition on CHO-K1_PD-L1 cells, competitor human PD-1-His 10 µg/mL.

Experiment [5] has as its target T1, PD-L1 antigen (human PD-L1 protein, …). Description: BLI (Octet RED 96e), cross-species series, antibody on anti-human Fc tips, human PD-L1 as analyte.
In experiment [6] the target is T5, cynomolgus monkey PD-L1 antigen (cynomolgus monkey, UniProt G7PSE7 19-238).
T5 construct: also called Cynomolgus PD-L1
T5 sequence (G7PSE7 entry or part of it): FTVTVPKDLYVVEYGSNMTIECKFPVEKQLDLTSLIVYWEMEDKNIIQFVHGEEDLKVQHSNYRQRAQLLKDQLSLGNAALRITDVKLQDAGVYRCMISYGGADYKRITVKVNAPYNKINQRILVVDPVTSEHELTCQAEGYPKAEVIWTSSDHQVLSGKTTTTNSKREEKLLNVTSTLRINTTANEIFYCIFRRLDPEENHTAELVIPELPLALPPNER
Briefly: BLI (Octet RED 96e), cross-species series, antibody on anti-human Fc tips, cynomolgus PD-L1 as analyte.

The target in experiment [7] is T6, cynomolgus monkey CD47 antigen (cynomolgus monkey, UniProt A0A2K5X523 19-139).
T6 construct: also called Cynomolgus CD47
Briefly: BLI (Octet RED 96e), cross-species series, antibody on anti-human Fc tips, cynomolgus CD47 as analyte.

Experiment [8] deals with T3, CD47 antigen expressed on the cell …. Briefly: FACS on Expi-CHO_CD47 cells, anti-human IgG Fc APC.
Experiment [9] has as its target T2, CD47 antigen (human CD47 protein, Octet …). Briefly: BLI (Octet RED 96e), cross-species series, antibody on anti-human Fc tips, human CD47 as analyte.
Experiment [10] concerns the target T4, PD-L1 antigen expressed on the cell …. Briefly: cell-based or functional assay.
The target is the same in experiment [11]. Briefly: FACS on CHO-K1_PD-L1 cells, anti-human IgG Fc APC.
A further experiment has as its target T7, mouse CD47 antigen (mouse, UniProt Q61735 19-140, limits assumed).
T7 sequence (looked up): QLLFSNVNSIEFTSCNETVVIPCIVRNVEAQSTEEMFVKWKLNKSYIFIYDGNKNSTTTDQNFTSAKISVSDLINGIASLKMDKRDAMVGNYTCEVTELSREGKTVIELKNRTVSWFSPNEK
Briefly: BLI (Octet RED 96e), antibody on anti-human Fc tips, antigen as analyte.

Experiment [12] has as its target T1, PD-L1 antigen (human PD-L1 protein, …). Briefly: BLI (Octet RED 96e), antibody on anti-human Fc tips, antigen as analyte, 1:1 global fit.

B1: anti-PD-L1xCD47 trivalent HCAb (PPC Nb-IgG4) (bispecific antibody)
heavy: QVQLVESGGGLVQPGGSLRLSCAASGFTFSSFAMSWVRQAPGKGLEWVSDINTGGDSTDYADSVKGRFTISRDNAKNTLYLQMNSLKPEDTAVYYCAKGPKEMVHVYSQRGQGTQVTVSSGGSGGGPSQVQLVESGGGLVQPGGSLRLSCAASGFTFSSFAMSWVRQAPGKGLEWVSDINTGGDSTDYADSVKGRFTISRDNAKNTLYLQMNSLKPEDTAVYYCAKGPKEMVHVYSQRGQGTQVTVSSGGSGGSGGSQVQLVESGGGLVQPGGSLNLSCAVSGLTFFRKYAVGWARQVPGKGLERVSRIYSDRRIEYLDAVKGRFTISRDNAKNTVYLQMNSLKTEDTAVYYCATGLRVGLTGWDEYDYWGQGTQVTVSSGPGGP[sequence of human IgG4 Fc with S228P L445P (EU numbers) not given]
notes: anti-PD-L1 sdAb x anti-PD-L1 sdAb x anti-CD47 sdAb fused to human IgG4 Fc; also called anti-PD-L1xCD47 HCAb; anti-PD-L1xCD47 3-valent HCAb
As to B1, in experiment [1], the koff worked out at 0.00242 s⁻¹ and the kon amounted to 354000 M⁻¹ s⁻¹. In [2], this molecule yielded a Kd of 3.62 nM, a koff of 0.00201 s⁻¹ and a kon of 554000 M⁻¹ s⁻¹. The molecule further gave an IC50 in experiment [3] of 22.4 nM. Moreover, the IC50 in [4] turned out to be 9.15 nM.

B2: humanized anti-PD-L1xCD47 trivalent HCAb (hPPC Nb-IgG4) (bispecific antibody)
heavy: EVQLVESGGGLVQPGGSLRLSCAASGFTFSSFAMSWVRQAPGKGLEWVSDINTGGDSTDYADSVKGRFTISRDNAKNTLYLQMNSLKPEDTAVYYCAKGPKEMVHVYSQRGQGTQVTVSSGGSGGGPSEVQLVESGGGLVQPGGSLRLSCAASGFTFSSFAMSWVRQAPGKGLEWVSDINTGGDSTDYADSVKGRFTISRDNAKNTLYLQMNSLKPEDTAVYYCAKGPKEMVHVYSQRGQGTQVTVSSGGSGGSGGSEVQLVESGGGLVQPGGSLNLSCAVSGLTFFRKYAVGWARQVPGKGLERVSRIYSDRRIEYLDAVKGRFTISRDNAKNTVYLQMNSLKTEDTAVYYCATGLRVGLTGWDEYDYWGQGTQVTVSSGPGGP[sequence of human IgG4 Fc with S228P L445P (EU numbers) not given]
notes: Humanized (first residue Q to E in each sdAb) form of PPC Nb-IgG4 with human IgG4 Fc; also called humanized anti-PD-L1xCD47 HCAb; humanized anti-PD-L1xCD47 3-valent HCAb
As to B2, the koff is 0.00254 s⁻¹ in experiment [5]; 0.00254 s⁻¹ in [1]; 0.0029 s⁻¹ in [6]; 0.00289 s⁻¹ in experiment [2]; 0.00161 s⁻¹ in experiment [7]; 0.00289 s⁻¹ in experiment [9]. Moreover, the kon in [5] was found to be 376000 M⁻¹ s⁻¹; in [1], 376000 M⁻¹ s⁻¹; in experiment [6], 356000 M⁻¹ s⁻¹; in experiment [2], 866000 M⁻¹ s⁻¹; in [7], 234000 M⁻¹ s⁻¹; in experiment [9], 866000 M⁻¹ s⁻¹. For the same molecule, the equilibrium dissociation constant (Kd) in experiment [6] amounted to 8.17 nM; in [2], 3.34 nM; in experiment [7] it was 6.91 nM; in experiment [9], 3.34 nM. Also, the IC50 was 33 nM in experiment [3] and 6.83 nM in experiment [4]. The figures for the EC50 in experiment [8] and in [11] were 22.7 nM and 11.5 nM, respectively. For the same molecule, in experiment [10], the “IFN-gamma production by CD4+ T cells in mixed lymphocyte reaction (MoDCs express PD-L1), EC50” value stood at 0.18 nM. Further, in experiment [10], the “IL-2 production by CD4+ T cells in mixed lymphocyte reaction (MoDCs express PD-L1), EC50” value is 0.08 nM. Further, the binding result with mouse CD47 antigen is “no binding (tested: antigen 12.5 to 200 nM)”.

B3: anti-PD-L1 bivalent HCAb (PP Nb-IgG4) (Fc fusion)
heavy: QVQLVESGGGLVQPGGSLRLSCAASGFTFSSFAMSWVRQAPGKGLEWVSDINTGGDSTDYADSVKGRFTISRDNAKNTLYLQMNSLKPEDTAVYYCAKGPKEMVHVYSQRGQGTQVTVSSGGSGGSQVQLVESGGGLVQPGGSLRLSCAASGFTFSSFAMSWVRQAPGKGLEWVSDINTGGDSTDYADSVKGRFTISRDNAKNTLYLQMNSLKPEDTAVYYCAKGPKEMVHVYSQRGQGTQVTVSSGPGGP[sequence of human IgG4 Fc with S228P L445P (EU numbers) not given]
notes: Two copies of PDL1 Nb#01 joined by GGSGGS and fused to human IgG4 Fc; also called anti-PD-L1 2-valent HCAb
Consider B3, for which, in experiment [12], the Kd is 4.58 nM, the koff is 0.00184 s⁻¹ and the kon was determined as 402000 M⁻¹ s⁻¹. For the same molecule, the EC50 in experiment [11] stood at 1.93 nM. The molecule also yielded an IC50 in [4] of 2.86 nM.

One may read the koff as the first-order rate constant of dissociation. In general, kon refers to the second-order rate constant of association. The Kd is the free concentration of one partner at which half of the binding sites on the other are occupied at equilibrium, for simple one-to-one binding. For orientation: IC50 means the concentration at which inhibition is half-maximal. One may read the EC50 as the concentration at which the effect is half-maximal.
